From PubChem BioAssay AID686978 (National Center for Advancing Translational Sciences (NCATS), 2013)
Hit rate of the full screen: of about 420,000 compounds, about 64,000 (15%) were called active. This list was built around the results that the source calls inconclusive (neither active nor inactive); the mix of calls is not that of the screen. The call rests on the fitted dose curve; in most records, active means well fitted inhibition curve with a large enough effect; inconclusive means small, poorly fitted or top-dose-only effect; inactive means flat fitted curve, though single readings scatter. Potencies of inconclusive entries are left out as doubtful fits.

experiment: qHTS for Inhibitors of human tyrosyl-DNA phosphodiesterase 1 (TDP1): qHTS in cells in absence of CPT; conditions: DT40 Tdp1-/- hTDP1 cells, no CPT, ATP luminescence, 48 h; activity change, negative = growth inhibition: at 46.2 µM (top of the series) unless noted; further: nearly all actives have a fitted effect of over 55% in size
Summary of the method: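 Readout: luminescence from CellTiter-Glo after 30 min in the dark at RT. Cells: DT40 Tdp1-/- with stable hTDP1, 400/well. Exposure: compounds alone, ≥48 hr, 37 °C.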
On the % scale 0 is the no-effect control and ±100 the full control effect; potency means the concentration at half of the fitted maximal effect; tags describe the fitted curve by direction and shape.

SMILES	Potency	activity change, negative = growth inhibition
Cc1ccc(NC(=O)C2(C)Cc3ccccc3C(=O)O2)c(C)c1 (stereo not given)	inconclusive [inhibitor, single point]	
Cc1nc2ccccc2n1-c1ccccc1	inconclusive [inhibitor, single point]	
O=C(c1ccccc1)C1CC=CCC1C(=O)c1ccccc1 (stereo not given)	inactive	
COc1ccc(OC)c(CNS(=O)(=O)c2cc(CN3C(=O)c4cccnc4C3=O)ccc2OC)c1	inactive	
COc1cc(NC(=S)N2CCCC(C)C2)c(OC)cc1Cl (stereo not given)	inconclusive [inhibitor, partial curve, poor fit]	
Cn1c(CC(=O)Nc2ccccc2F)nnc1SCC(=O)Nc1nccs1	inactive	
O=C(COc1ccc(Cc2ccccc2)cc1)c1ccc(F)cc1	inconclusive [inhibitor, single point]	
O=c1c2ccccc2oc2ccc(Oc3ccccc3)cc12	inconclusive [inhibitor, partial curve]	
CCC(C)C(NC(=O)c1ccccc1NC(=O)c1ccc(OC)cc1)C(=O)NCc1ccco1 (stereo not given)	inactive	
COc1ccc(C(C(=O)NC2CCCC2)N(C(=O)c2ccco2)c2cc3c(cc2C(C)=O)OCO3)cc1 (stereo not given)	inactive	
CCOc1ccc(NC(=O)c2ccco2)cc1	inactive	
CC1C(=O)N(Cc2cccc(F)c2)c2ccccc2N1C(=O)c1ccccc1 (stereo not given)	active: 14.6 µM	
Cc1ccc(NC(=O)N2CCN(C(=O)c3ccco3)CC2)cc1Cl	inconclusive [inhibitor, full curve, poor fit]	
CC(C)(CNC(=O)c1ccc(Br)o1)CNC(=O)c1ccc(Br)o1	inactive	
COc1ccc(Cl)cc1N1C(=O)CC(Sc2ccccc2N)C1=O (stereo not given)	inactive	
COc1ccc(CCNC(=O)c2ccc3c(c2)sc2nc(-c4ccccc4)cn23)cc1OC	active: 7.31 µM	
O=C(CCCn1c(SCc2cccc(F)c2)nc2ccccc2c1=O)NCC1CCCO1 (stereo not given)	inconclusive [inhibitor, single point]	
CCN(CC)S(=O)(=O)c1cccc(NC(=O)COc2ccc(F)cc2Br)c1	inconclusive [inhibitor, single point]	
COc1ccc(NC(=O)c2sc(=O)n(Cc3ccc(S(=O)(=O)N(C)C)cc3)c2C)cc1	inconclusive [inhibitor, single point]	
Cc1ccccc1N(C)S(=O)(=O)c1nnc(NC(=O)c2ccco2)s1	inconclusive [inhibitor, single point]	
CCCc1cc(=O)[nH]c(SCC(=O)Nc2c(C)cccc2C)n1	inconclusive [inhibitor, partial curve]	
Cc1ccc(CNC(=O)Cn2c(SCC(=O)Nc3ccc(F)cc3)nc3ccccc32)cc1	inconclusive [inhibitor, single point]	
Cc1cccc(S(=O)(=O)Nc2nc3ccccc3nc2NCc2ccco2)c1	inconclusive [inhibitor, single point]	
Cc1ccc(S(=O)(=O)N(C)c2ccc(C(=O)N(CC(C)C)C3CCS(=O)(=O)C3)cc2)cc1 (stereo not given)	inconclusive [inhibitor, single point]	

SMILES	Potency	activity change, negative = growth inhibition
CCOC(=O)Cc1csc(/N=C/c2c(O)n(-c3ccccc3C(F)(F)F)c(=O)c3ccccc23)n1	inconclusive [inhibitor, partial curve, poor fit]	
O=C1C=C(NCc2ccc(Cl)c(Cl)c2)C2(CCCCC2)O1	active: 16.4 µM	
COc1ccccc1Cc1nc(-c2ccc(Br)o2)no1	inconclusive [inhibitor, single point]	
CCCCc1ccc(-n2c(Cc3cccs3)n[nH]c2=S)cc1	inconclusive [inhibitor, single point]	
COc1ccc(N2CC(NS(=O)(=O)c3ccc4ccccc4c3)CC2=O)cc1 (stereo not given)	active: 23.1 µM	
CCOc1ncccc1C(=O)N1CCN(S(=O)(=O)c2ccc3c(c2)OCCO3)CC1	inconclusive [inhibitor, partial curve]	
CC(=O)N1CCc2[nH]c3ccc(C)cc3c2C1	inactive	
O=C(Nc1nnc(SCc2ccc(Cl)cc2)s1)c1cnccn1	inconclusive [inhibitor, single point]	
COc1ccc(C(=O)N2CCN(C3CCCCC3)CC2)cc1OC	inconclusive [inhibitor, full curve, poor fit]	
Cc1cc(OCC(=O)NCCc2nc3ccccc3[nH]2)cc(C)c1Cl	active: 11.6 µM	
CC1(C)CC(=O)C(C=Nc2cc(C(=O)c3ccccc3)ccc2N)=C(O)C1	inactive	
CCCCn1c(CN2CCN(c3cccc(Cl)c3)CC2)nc2c1c(=O)n(C)c(=O)n2C	active: 6.51 µM	
Cc1ccc(N(Cc2cc3ccc(C)cc3[nH]c2=O)S(C)(=O)=O)c(C)c1	inconclusive [inhibitor, single point]	
COc1ccc(C)cc1C(=O)CCC(=O)Nc1ccccc1N1CCOCC1	inconclusive [inhibitor, single point]	
CCc1nc2ccccc2n1CCc1ccccc1	inconclusive [inhibitor, single point]	
Cc1cc(C)c(S(=O)(=O)NCCS(=O)(=O)N2CCN(c3ccccc3)CC2)c(C)c1	active: 18.4 µM	
COc1ccc(/C=C2\Oc3cc(OCC(N)=O)ccc3C2=O)cc1OC	inconclusive [inhibitor, single point]	
COc1ccc(CN2CCN(Cc3ccc(C(F)(F)F)cc3)CC2)c(OC)c1	active: 14.6 µM	
N#Cc1c(N2CCCC2)nc(N)c2c(N)nc(N3CCCC3)cc12	active: 18.4 µM	
COc1ccc(OC)c(S(=O)(=O)Nc2cccc3ccccc23)c1	inconclusive [inhibitor, partial curve, poor fit]	
Cc1ccc(NC(=O)c2ccco2)c(NC(=O)c2ccccc2)c1	inactive	
CCn1ncc(Br)c1C(=O)Nc1ccc(OC(F)(F)F)cc1	inconclusive [inhibitor, single point]	
Cc1ccc(CNC(=O)C(C)n2c(=O)cc(C(F)(F)F)c3c(C)nn(C)c32)cc1 (stereo not given)	inconclusive [inhibitor, single point]	
CN(C)C(=O)CCSc1nnc(-c2ccncc2)o1	inactive	

SMILES	Potency	activity change, negative = growth inhibition
CCn1nc(C)c(CCN(C)C(=O)Nc2cccc(Cl)c2C)c1C	inconclusive [inhibitor, single point]	
Cc1ccc(C(=O)Nc2ccc(C(=O)O)cc2)cc1S(=O)(=O)NCc1ccccc1	inactive	
Cc1cccc(C(=O)N2CCc3cc(CNC(=O)c4cc5ccccc5[nH]4)ccc32)c1	inactive	
COc1ccc(CNC(=O)CN2C(=O)CSc3ccc(S(=O)(=O)N4CCOCC4)cc32)cc1	inactive	
CCOC(=O)[C@]12CCC=C1N(Cc1ccc3c(c1)OCO3)C(=O)[C@H](CC(=O)NCC1CCCCC1)C2	inconclusive [inhibitor, single point]	
Cc1[nH]c2ccccc2c1/C=N/NC(=O)c1cccc(S(=O)(=O)Nc2cccc(C(F)(F)F)c2)c1	inconclusive [inhibitor, partial curve]	
COc1ccc(Cl)cc1N(CC(=O)NCCSc1ccccn1)S(=O)(=O)c1ccccc1	inconclusive [inhibitor, partial curve]	
COC(=O)c1ccc(/C=C(\C#N)c2ccccn2)cc1	inconclusive [inhibitor, partial curve]	
CN(C(=O)COC(=O)c1ccc(Cl)c(S(=O)(=O)NCc2ccccc2)c1)C1CCS(=O)(=O)C1 (stereo not given)	inactive	
CCn1c(SCC(=O)Nc2oc(-c3ccccc3)c(-c3ccccc3)c2C#N)nnc1-c1cc(OC)cc(OC)c1	inconclusive [inhibitor, full curve, poor fit]	
COC(=O)c1ccc(C(=O)OC)c(NC(=O)CN2CCN(c3ccc(OC)cc3)CC2)c1	inconclusive [inhibitor, single point]	
CN(C)c1ccc(CN(C(=O)COc2ccc(Br)cc2)C2CCS(=O)(=O)C2)cc1 (stereo not given)	inactive	
CC(=O)c1ccc([C@H]2C[C@@]34CN(C(=O)OC(C)(C)C)S(=O)(=O)[C@H]3C[C@H]2O4)cc1	inconclusive [inhibitor, single point]	
O=c1cc(-c2ccccc2)nc(Sc2ccc([N+](=O)[O-])cc2[N+](=O)[O-])[nH]1	inconclusive [inhibitor, single point]	
CS(=O)(=O)N(CCc1ccccc1)CC(=O)NCc1cccnc1		inconclusive: -1.39% [inhibitor]
CC(C)OCCCNC(=O)Nc1cccc2ccccc12	inactive	
CC1(c2ccc(Cl)cc2)NC(=O)N(CC(=O)Nc2cccnc2Cl)C1=O (stereo not given)	inactive	
COc1ccc(C(=O)NCC(C)C)c(OC)c1	inconclusive [inhibitor, single point]	
N#Cc1c(-c2ccc(Cl)cc2)cc(-c2cccs2)nc1SCC(=O)O	inconclusive [inhibitor, single point]	
CN1C(=S)N(c2ccccc2)C(=O)/C1=C/c1ccco1	inconclusive [inhibitor, single point]	
O/N=C(\c1ccc(Cl)cc1Cl)c1ncc(C(F)(F)F)cc1Cl	inconclusive [inhibitor, single point]	
O=C(NC(Cc1c[nH]c2ccccc12)C(=O)NCc1ccc(F)cc1)OCc1ccccc1 (stereo not given)	inconclusive [inhibitor, single point]	
